From the supplement of paper PMC12217912
The list shows a part of the results. Sequences were assembled here from the parent chain. Values near 0.05 are background.

B1: TEV protease; numbered along this chain (parent)
chain: MGESLFKGPRDYNPISSSICHLTNESDGHTTSLYGIGFGPFIITNKHLFRRNNGTLVVQSLHGVFKVKDTTTLQQHLVDGRDMIIIRMPKDFPPFPQKLKFREPQREERICLVTTNFQTKSMSSMVSDTSCTFPSGDGIFWKHWIQTKDGQCGSPLVSTRDGFIVGIHSASNFTNTNNYFTSVPKNFMELLTNQEAQQWVSGWRLNADSVLWGGHKVFMVKPEEPFQPVKEATQL

Variants of: B1
Assay: raw area under fraction-flipped curve 0-4 h after induction (AUC4h, not background-subtracted), DNA-recorder readout of cleavage of the substrate (dimensionless); higher = more cleavage of the substrate by the protease variant
Details: temperature: 34 °C; time window: 0-4 h after rhamnose induction
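Further: Bxb1 expression induced with 0.2% (w/v) L-rhamnose at OD600 near 0.5, cultures sampled hourly, flipped fraction per protease–substrate barcode pair counted by paired-end Illumina sequencing.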

Row | Variant | area with substrate ENLYFCS | area with substrate ENLYFDS | area with substrate ENLYFES | area with substrate ENLYFFS | area with substrate ENLYFIS | area with substrate ENLYFKS | area with substrate ENLYFMS | area with substrate ENLYFNS | area with substrate ENLYFPS | area with substrate ENLYFRS | area with substrate ENLYFTS | area with substrate ENLYFVS | area with substrate ENLYFWS | area with substrate ENLYFYS | area with substrate ENLYFGS | area with substrate ENLYFHS | area with substrate ENLYFLS | area with substrate ENLYFSS
1 | MGESLFKGPRDYNPISSSICHLTNESDGHTTSLYGIGFGPFIITNKHLFRRNNGTLVVQSLHGVFKVKDTTTLQQHLVDGRDMIIIRMPKDFPPFPQKLKFREPQREERICLVTTNFQTKSMSSMVSDTSCTFPSGDGIFWKHWIQTKDGQCGSPLVSTRDGFIVGIHSASNFTNTNNYFTSVPKNFMELLTNQEAQQWVSGWRLNADSVLWGGHKVFMVKPEFPFQPVKEATQL [E224F] | 0.057 | 0.0578 | 0.0391 | 0.0683 | 0.041 | 0.0329 | 0.0613 | 0.0856 | 0.0496 | 0.0578 | 0.0655 | 0.0529 | 0.0594 | 0.0699 | – | – | – | –
2 | MGESLFKGPRDYNPISSSICHLTNESDGHTTSLYGIGFGPFIITNKHLFRRNNGTLVVQSLHGVFKVKDTTTLQQHLVDGRDMIIIRMPKDFPPFPQKLKFREPQREERICLVTTNFQTKSMSSMVSDTSCTFPSGDGIFWKHWIQTKDGQCGSPLVSTRDGFIVGIHSASNFTNTNNYFTSVPKNFMELLTNQEAQQWVSGWRLNADSVLWGGHKVFMPKPEEPFQPVKEATQL [V220P] | 0.0475 | 0.0446 | 0.0629 | 0.0602 | 0.0563 | 0.064 | 0.0609 | 0.0726 | 0.0573 | 0.0534 | 0.0646 | 0.0287 | 0.0895 | 0.0268 | 0.0467 | 0.0557 | 0.0579 | 0.0614
3 | MGESLFKGPRDYNPISSSICHLTNESDGHTTSLYGIGFGPFIITNKHLFRRNNGTLVVQSLHGVFKVKDSTTLQQHLVDGRDMIIIRMPKDFPPFPQKLKFREPQREERICLVTTNFQTKSMSSMVSDTSCTFPSGDGIFWKHWIQTKDGQCGSPLVSTRDGFIVGIHSASNFTNTNNYFTSVPKNFMELLTNQEAQQWVSGWRLNADSVLWGGHKVFMVKPEEPFQPVKEATQL [T70S] | – | 0.0609 | 0.0561 | 0.0551 | – | 0.0618 | 0.0713 | 0.0539 | 0.0829 | 0.0632 | – | 0.0709 | – | 0.0635 | 0.0707 | 0.0533 | – | 0.0556
4 | MGESLFKGPRDYNPISSSICHLTNESDGHTTSLYGIGFGPFIITNKHLFRRNNGTLVVQSLHGVFKVKDTTTLQQHLVDGRDMIIIRMPKDFPPFPQKLKFREPQREERICLVTTNFQTKSMSSMVSDTSCTFPSGDGIFWKHWIQTKDGQCGSPLVSTRDGFIVGIHSASNFTNTNNYFTSVPKNFMELLTNQEAQQWNSGWRLNADSVLWGGHKVFMVKPEEPFQPVKEATQL [V200N] | – | 0.0554 | – | – | 0.0554 | 0.0665 | 0.0554 | 0.0581 | 0.078 | – | 0.051 | – | – | – | – | – | 0.0525 | 0.051
5 | MGESLFKGPRDYNPISSSICHLTNESDGHTTSLYGIGFGPFIITNKHLFRRNNGTLVVQSLHGVFKVKDTTTLQQHLVDGRDMIIIRMPKDHPPFPQKLKFREPQREERICLVTTNFQTKSMSSMVSDTSCTFPSGDGIFWKHWIQTKDGQCGSPLVSTRDGFIVGIHSASNFTNTNNYFTSVPKNFMELLTNQEAQQWVSGWRLNADSVLWGGHKVFMVKPEEPFQPVKEATQL [F92H] | – | – | 0.0488 | – | 0.0541 | – | – | – | 0.0758 | – | – | 0.0383 | 0.0483 | – | – | 0.0619 | – | –
6 | MGESLFKGPRDYNPISSSICHLTNESDGHTTSLYGIGFGPFIITNKHLFRRNNGTLVVQSLHGVFKVKDTTTLQQHLVDGRDMIIIRMPKDFPPFPQKLKFREPQREERICLVTTNFQTKSMSSMVSDTSCTFPSGDGIFWKHWIQTKDGQCGSPLVSTRDGFIVGIHSASNFTNTNNYFTSVPKNFMELLTNQEAQQWVSGWRLNADSVLWGGHKVFMVKPEEPFQPVKEAKQL [T233K] | 0.0685 | – | 0.0599 | 0.0688 | 0.0598 | – | – | 0.0662 | 0.0712 | – | 0.0649 | – | – | 0.0572 | – | – | 0.0444 | 0.0657
7 | MGESLFKGPRDYNPISSSICHLTNESDGHTTSLYGIGFGPFIITNKHLFRRNNGTLVVQSLHGVFKVKDTTTLQQHLVDGRDMIIIRMPKDFPPFPQKLKFREPQREERICLVTTNFQTKSMSSMVSDTSCTFPSGDGIFWKCWIQTKDGQCGSPLVSTRDGFIVGIHSASNFTNTNNYFTSVPKNFMELLTNQEAQQWVSGWRLNADSVLWGGHKVFMVKPEEPFQPVKEATQL [H143C] | – | 0.0906 | – | 0.0716 | 0.0591 | 0.0634 | 0.0599 | 0.0593 | 0.0726 | 0.0522 | 0.0454 | 0.0623 | – | 0.0537 | – | 0.0616 | – | –
8 | MGESLFKGPRDYNPISSSICHLTNESDGHTTSLYGIGFGPFIITNKHLFRRNNGTLVVQSLHGVFKVKDTTTLQQHLVDGRDMIIIRMPKDFPPFPQKLKFREPQREERICLVTTNFQTKSMSSMVSDTSCTFPSGDGIFWKHWIQTKDGQCGSPLVSTRDGFIVGIHSASNFTNTNNYFTSVPKNFMELLTNQEAQQWVSGYRLNADSVLWGGHKVFMVKPEEPFQPVKEATQL [W203Y] | 0.0579 | – | 0.0557 | – | 0.0629 | – | – | 0.0579 | – | 0.0593 | – | 0.0589 | 0.0702 | 0.0554 | – | 0.0604 | – | –
9 | MGESLFKGPRDYNPISSSICHLTNESDGHTTSLYGIGFGPFIITNKHLFRRNNGTLVVQSLHGVFKVKDTTTLQQHLVDGRDMIIIRMPKDFPPFPQKLKFREPQREERICLVTTNFQTKSMSSMVSDTSCTFPSGDGIFWKHWIQTKDGQCGSPLVSTRDGFIVGIHSASNFTNTNNYFTSVPKNFMELLTNQEAQQWVSGWRLNADSVLWGGHKVFCVKPEEPFQPVKEATQL [M219C] | – | 0.0534 | 0.0663 | 0.0716 | 0.0678 | 0.0573 | 0.092 | – | 0.0657 | 0.0651 | 0.0529 | – | 0.0528 | 0.0537 | – | – | 0.0634 | –
10 | MGESLFKGPRDYNPISSSICHLTNESDGHTTSLYGIGFGPFIITNKHLFRRNNGTLVVQSLHGVFKVKDTTTLQQHLVDGRDMIIIRMPKDFPPFPQKLKFREPQREERICLVTTNFQTKSMSSMVSDTSCTFPSGDGIFWKHWIQTKDGQCGSPLVSTRDGFIVGIHSASNFTNTNNYFTSVPKNFMELLTNQEAQQWVSGWRWNADSVLWGGHKVFMVKPEEPFQPVKEATQL [L205W] | 0.0466 | 0.0564 | – | 0.0641 | – | – | 0.0575 | – | 0.0533 | 0.0557 | – | 0.0529 | 0.0603 | 0.0597 | – | – | – | –
